Measurements taken from ChEMBL document CHEMBL4888484, “Replenishing the malaria drug discovery pipeline: Screening and hit evaluation of the MMV Hit Generation Library 1 (HGL1) against asexual blood stage Plasmodium falciparum ,using a nano luciferase reporter read-out” (2022).
Screen size: about 150,000 compounds; about 540 (0.36%) showed an effect of 50% or more. The list shows a part of the results.

Tested on: Plasmodium falciparum
Assay: Primary screen in NF54 nanoGlo assay, in single point, at 2uM, 72h; a lower Z score goes with more inhibition
Type: functional, Erythrocyte
Details: timepoint 72 hour

SMILES | % Inhibition [%] | Z score
COCCC(NC(=O)C1C2CCCC21)c1ccc(C)o1 (stereo not given) | 17 | -1.94
C[C@H]1Cc2c(NC(=O)CC3CCCC3)nn(C)c2NC1=O | 11 | -1.47
COc1ccc(-c2ccc(C(=O)NCc3nc4ccccc4[nH]3)c(=O)[nH]2)cc1 | -6 | 0.7
CC(C)C(=O)N1C[C@H](O)C[C@H]1c1nnc2n1CCN(C(=O)C1CCCCC1)C2 | -9 | 1.02
COc1c(F)cccc1CN1C[C@H]2CCC[C@@H](C1)N(C)C2 | 4 | -0.56
Cc1cc(CN(C)C[C@@]2(C)CCCN(C(=O)OC(C)(C)C)C2)no1 | 4 | -0.58
Cc1cc2c(cnc3ncnn32)c(=O)n1-c1ccc2c(c1)OCCO2 | -5 | 0.68
Nc1[nH]nc(-c2ncnn2C2CCCCC2)c1Cl | 1 | -0.12
COc1ccc(-c2csc(N3CCN(C/C=C/c4ccccc4)CC3)n2)cc1 | -12 | 2.29
COc1ccc(-c2cc(C(=O)Nc3ncc(Cc4cccc(C)c4)s3)c3ccccc3n2)cc1OC | -1 | 0.21
CCc1nccn1CCC(=O)N1CC[C@@](O)(C2CCOCC2)[C@H](C)C1 | -5 | 0.94
CN(C)C(=O)c1cccc(Cn2ccnc2-c2ccccc2-c2ccco2)c1 | -11 | 1.45
CCC[C@H](C)N1CC2(CCN(C(=O)c3cc(C)nc(C)n3)CC2)OC1=O | 10 | -1.79
Cc1ccc(C)c(-c2nn(CN(C)Cc3ccccc3)c(=O)c3ccccc23)c1 | 7 | -0.96
CC1C(OC(=O)c2ccc(-n3cccn3)nc2)CC2CC1C2(C)C (stereo not given) | -6 | 0.84
O=C(CCCn1cnnn1)N1CCC[C@H]1c1nc2ccccc2[nH]1 | -7 | 0.86
Cc1nc(-c2ccc(-c3noc(-c4ccnn4C)n3)cc2)cs1 | -21 | 2.09
C=CCN1CCC[C@H]1C(=O)NCCc1cc[nH]n1 | 1 | -0.1
CCCN1CCCN(Cc2cc3ccccc3[nH]c2=O)CC1 | 0 | 0
CCn1c(=O)c(N2CCC(C(=O)N[C@H]3CCS(=O)(=O)C3)CC2)nc2ccccc21 | -6 | 1.14
CC(NC(C)c1nccn1C)c1cscn1 (stereo not given) | -2 | 0.44
CCCCc1cc(N2C[C@H](C(=O)O)[C@@H](C3CC3)C2)ncn1 | -6 | 0.65

SMILES | % Inhibition [%] | Z score
Cc1nn(C(C)(C)C)c2nc(C3CC3)cc(C(=O)N3CCN(c4ccccc4)CC3)c12 | 7 | -1.07
CC1(C)NC(=O)N(CCCN2CCc3ccccc3[C@@H]2C(N)=O)C1=O | -14 | 1.25
CCN(CC)C(=O)Cn1ccnc1-c1cncc(Br)c1 | 25 | -2.79
COCCN(Cc1cncs1)C(=O)[C@@H]1CCCO1 | -4 | 0.65
N#Cc1ccc(N2CCC[C@H]2CCc2ccccn2)nc1 | -17 | 2.69
CC(C)N1CCCC[C@H]1C(=O)Nc1ccn(CCCC#N)n1 | -11 | 1.51
Cc1cc(C)cc(/N=C(\NCc2ccncc2)NC(=O)c2cccc(F)c2)c1 | -7 | 1.22
c1ccc(Nc2nccc(-c3ccc4c(c3)OCO4)n2)cc1 | 27 | -3.06
COc1ccc2c(c1)[C@H](C(=O)Nc1ccncc1OC(C)C)CC2 | 3 | -0.4
Cc1n[nH]c2ncc(NC(=O)c3ccc(CCC(F)(F)F)cc3)cc12 | 37 | -4.75
COc1ncccc1C(=O)NCc1nccnc1-c1ccoc1 | 16 | -1.99
CC(C)c1nccc(N2CCN([C@@H](C(N)=O)c3ccccc3)CC2)n1 | 19 | -2.48
CCNc1cnc(-c2noc([C@H]3CCO[C@@H]3c3cccnc3)n2)cn1 | 3 | -0.39
CCCOc1ccccc1[C@H](C)NC(=O)N1CC(O)C1 | -9 | 0.88
C=C[C@@H]1CCCCN1C(=O)CC(CC)(CC)C(=O)O | 1 | -0.14
CC(=O)Nc1ccccc1CN(Cc1ccc(F)cc1F)C1CC1 | 9 | -0.85
CN(CC1(C)COC1)C(=O)[C@H]1CC[C@H](O)CC1 | -14 | 2.1
COc1ccc(OC)c(C2CN(C(=O)NC(C)C)CC2C(=O)N2CCCC2)c1 (stereo not given) | -16 | 1.5
C[C@@H](CO)NC(=O)Nc1cncc(Cl)c1 | -8 | 1.6
CN(CC1CCOCC1)C(=O)Nc1cc(F)cc(F)c1 | -11 | 1.64
O=S(=O)(c1ccc(Br)cc1)N1CCN(Cc2noc(-c3cccc(C(F)(F)F)c3)n2)CC1 | 0 | -0.04
C[C@H]1CCCCN1C(=O)C1=CC(c2ccc3c(c2)OCO3)=NS(=O)(=O)N1C | -2 | 0.35

SMILES | % Inhibition [%] | Z score
C[C@H](CO)NC(=O)c1cccc(C=CCCCC(=O)N(C)C)c1 | -6 | 0.73
COc1ccc(-c2nc(CCNC(=O)c3ccccc3Cl)n[nH]2)cc1 | -10 | 1.88
CC1(C)c2ccccc2N2CC(=O)N(CC#N)[C@@]21C | 34 | -3.89
Cc1oc(C)c(C(=O)Nc2cccnc2C2CC2)c1C | 10 | -1.88
COc1nc(NC(=O)[C@H]2CC2(C)C)n[nH]1 | 12 | -1.19
CC(=O)N1CCN(C(=O)c2nn(-c3ccc(C)c(F)c3)c(=O)n(Cc3ccc(C)cc3)c2=O)CC1 | -17 | 1.62
Cc1cccc(N(CCO)CCCO)n1 | -8 | 0.85
COc1ccc(Cl)cc1-n1cnc2cc(C(=O)N3CCOCC3)ccc2c1=O | -7 | 0.93
Cc1c(F)cccc1NC(=O)COC[C@H]1CCCO1 | -9 | 0.89
CCOC(=O)N1CCN(C(C)C(=O)N2c3ccccc3CC2C)CC1 (stereo not given) | -3 | 0.34
Cn1nc2n(c1=O)CCN(S(=O)(=O)c1ccccc1F)CC2 | -12 | 1.58
CC(=O)N1CCc2cc(S(=O)(=O)N3CCOCc4ccccc43)ccc21 | 8 | -0.78
Cc1cc(O)cc(=O)n1CC(=O)N1C[C@@H](C)CN(C)c2ccccc21 | 8 | -1.55
COc1cccc(CC[C@H]2CCCN(C(=O)c3c(C)nc4ncccn34)C2)c1 | -9 | 1.27
COc1cc(CNC2CC2)cc(Br)c1OCc1ccc(C)cc1 | 30 | -3.37
Nc1nc([C@H]2CCOC2)cc(N2CCCCCCC2)n1 | -3 | 0.53
CC1CCC(NC(=O)CN[C@H](c2ccccc2)C2CC2)CC1 (stereo not given in full) | -20 | 1.87
Cn1nc2nc(NCc3ccccc3)nc(-c3cccc(Oc4ccccc4)c3)c2c1N | -11 | 1.03
Cc1ccccc1-c1nc(OC(C)C)nn1-c1ccc(NC(=O)c2ccco2)cc1 | 6 | -1.02
Cc1ccc(Cl)cc1-n1ncc2c(=O)n(Cc3nc(-c4ccccc4)no3)cnc21 | 2 | -0.29
Cc1c(Cl)cccc1-n1ccn2c(=O)n(Cc3ccc(F)cc3)nc2c1=O | -3 | 0.42
Cc1ccc(C2CCCC2N(C)c2c(C#N)c(=O)n(C)c(=O)n2C)cc1 (stereo not given) | -12 | 2.04

SMILES | % Inhibition [%] | Z score
Cc1noc(CCCNC(=O)NC[C@](C)(O)c2ccc(C)o2)n1 | -4 | 0.58
CC(C)(C)C(=O)NCCc1ccc(OC(F)F)cc1 | -20 | 1.82
COc1cccc(NC(=O)[C@@]2(CCO)CCN(c3ncccn3)C2)c1 | 4 | -0.73
CCCOc1ccc(CN2CCOC3(CCOCC3)C2)cc1OCC | 13 | -1.6
Cc1nnnn1[C@@H](C(=O)NCc1nc(C(F)(F)F)n[nH]1)c1ccccc1 | -23 | 4.49
Cc1cc(NC(=O)CCN2CCN(C)C[C@@H]2C)no1 | 11 | -2.12
CCc1nn(C[C@@]2(C)CC2(Cl)Cl)c(=O)c(C#N)c1CC | -2 | 0.32
CC1CCCC(C)C1NC(=O)CC1CCCOC1 (stereo not given) | -7 | 1.13
COCC(=O)NCc1cc2n(n1)CCN([C@H]1CCN(c3ccc(F)cc3)C1)C2 | -4 | 0.73
CN(Cc1cncs1)Cc1ccns1 | -7 | 0.96
Cc1cc(N2CC[C@](C)(O)[C@@H](O)C2)nc(N2CCOCC2)n1 | -10 | 0.96
Cc1ccc(C)c(Cn2c(C)c(CNC3CCC(C)CC3)c(C(=O)O)c2C)c1 (stereo not given) | -13 | 2.36
COc1ccc(-c2nn3c(N4CCN(C)CC4)cc(C)nc3c2C)cc1OC | -11 | 2.19
O=C(O)C1C2C=CC(O2)C1C(=O)Nc1ccc2ccccc2c1 (stereo not given) | -30 | 3.55
CCCn1nc(C(=O)N2CCO[C@@H](C)C2)ccc1=O | -7 | 1.11
CCCc1cc(N2CCCC[C@H]2c2ncccn2)n2ncnc2n1 | -5 | 0.66
O=C(COc1ccccc1)N1CCCN(c2ccncc2Cl)CC1 | -10 | 0.92
Fc1ccc(-c2noc([C@@H]3Cc4[nH]cnc4CN3CCCc3ccccc3)n2)cc1Cl | -8 | 1.18
Cc1nnsc1C(=O)Nc1nc2ccccc2[nH]1 | -10 | 1.32
